Test results from PubChem BioAssay AID588855 (National Center for Advancing Translational Sciences (NCATS), 2011).
Several values for one entry are separate records, joined by “and”; a condition that tells them apart may be missing. Equal entries are not always repeated. Hit rate of the full screen: of about 410,000 compounds, about 5,000 (1.2%) were called active. Inconclusive results, whose numbers are uncertain, are shown with a selection of clear calls. Calls follow the shape of the dose curve; as a rule, active = well fitted inhibition curve with a large enough effect; inconclusive = small, poorly fitted or top-dose-only effect; inactive = no such curve, though single readings can be large or run the other way. Potencies beside an inconclusive call are fits to weak or partial responses and may not hold up. Numbered stars: 1 amine (or outer) side, 2 acyl side, 3 side chain; on linkers, the order of the positions; unused ones are H or OH. Square brackets hold non-standard residues; d marks the D form. Peptide text beside a SMILES is read from it. X3 = CC[C@H](C)[C@H](OC(=O)[C@@H](C)[C@@H](CC)N[*:1])C(=O)[*:2]; X1 = CC(N[*:1])C(=O)C(C)(C)C(=O)[*:2]; NMeF = CN[C@@H](Cc1ccccc1)C(=O)O; NMeL = CN[C@@H](CC(C)C)C(=O)O; NMeV = CN[C@H](C(=O)O)C(C)C; NMeA = CN[C@@H](C)C(=O)O

Experiment: qHTS for Inhibitors of TGF-b; also: nearly all actives have a fitted effect of over 65% in size
Settings: HepG2 CAGA-GFP TGF-b/SMAD3 reporter, GFP fluorescence, 18 h, TGF-beta stimulated, 500 pg/mL final; series mostly up to 46.1 µM
Method in brief: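 Per well, imaged GFP fluorescence of HEPG2 CAGA-GFP cells gives the signal; cells get compound, then TGF-beta (500 pg/mL final), 18 h at 37 degrees C; %Activity versus -TGF-beta and +DMSO controls.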
Potency is read from the fitted curve at half-maximal effect; tags tell the direction and shape of the fitted curve.

With Cc1cc(OCC(=O)NCCc2nc3ccccc3[nH]2)cc(C)c1Cl as the compound, how does the Potency read?
Its Potency is active: 20 µM.

For CCCCNC(=O)/C=C/c1ccc(OC)c(Br)c1, which Potency is on record?
Its Potency is “inactive”.

With CC(C)Oc1ccc(C(=O)/C=C2/C(=O)Nc3ccccc32)cc1 as the compound, how does the Potency read?
The Potency was inconclusive: 31.6 µM [inhibitor, single point].

For COc1ccccc1CN1CCC(CNS(=O)(=O)c2cc(-c3cc(C)no3)ccc2OC)CC1, which Potency is on record?
The Potency was inconclusive: 8.91 µM [inhibitor, partial curve, poor fit].

Which Potency does the source give for Cc1ccc(CNC(=O)Cn2c(SCC(=O)Nc3ccc(F)cc3)nc3ccccc32)cc1 here?
The Potency was inconclusive: 6.31 µM [inhibitor, full curve, poor fit].

With COc1ccc(N2CC(NS(=O)(=O)c3ccc4ccccc4c3)CC2=O)cc1 (centres undefined) as the compound, how does the Potency read?
Its Potency is inconclusive: 10 µM [inhibitor, partial curve].

For COc1ccccc1Cc1nc(-c2ccc(Br)o2)no1, which Potency is on record?
The Potency was inconclusive: 6.31 µM [inhibitor, single point].

For COc1ccc(Cl)cc1N1C(=O)CC(Sc2ccccc2N)C1=O (centres undefined), which Potency is on record?
Its Potency is “inactive”.

For CCOC(=O)c1cc(-c2ccc(OC)cc2)n(CCC(=O)NCCc2ccccc2)c1C, which Potency is on record?
The Potency was inconclusive: 35.5 µM [inhibitor, single point].

For COc1ccc(Cc2nnc3n2N=C(c2cc4ccccc4o2)CS3)cc1OC, which Potency is on record?
The Potency was “inactive”.

Which Potency does the source give for O=c1c2ccccc2oc2ccc(Oc3ccccc3)cc12 here?
Its Potency is inconclusive: 14.1 µM [inhibitor, single point] and inconclusive: 35.5 µM [inhibitor, single point].

With O=C(C1CCCC1)N1CCC(CO)(Cc2ccccc2Cl)CC1 as the compound, how does the Potency read?
The Potency was “inactive”.

With COc1cc([N+](=O)[O-])ccc1NC(=S)NNC(=O)CCC(=O)Nc1ccccc1Cl as the compound, how does the Potency read?
Its Potency is “inactive”.

With Clc1ccc(C[n+]2csc3ccccc32)cc1 as the compound, how does the Potency read?
Its Potency is inconclusive: 17.8 µM [inhibitor, single point].

Which Potency does the source give for COc1ccc(/C=N/n2cc(-c3ccc(OC)cc3)nc2N)cc1 here?
The Potency was “inactive”.

For O=C(CSc1ccccc1Cl)N1CCC(c2nc3ccccc3s2)CC1, which Potency is on record?
Its Potency is inconclusive: 35.5 µM [inhibitor, single point].

With O=C(Nc1ccc(Oc2c(F)c(F)c(F)c(F)c2F)cc1)OC1CCN2Cc3ccccc3N=C12 (centres undefined) as the compound, how does the Potency read?
The Potency was active: 10 µM.

Which Potency does the source give for CC(=O)Oc1ccccc1Cn1c(C)c(C(=O)N(C)Cc2ccc(F)cc2)sc1=O here?
The Potency was inconclusive: 10 µM [inhibitor, partial curve, poor fit].

With COc1ccc(NC(=O)/C=C\C(=O)N(c2ccc(C(C)C)cc2)C(C(=O)NCc2ccco2)c2ccc(C)cc2)cc1 (centres undefined) as the compound, how does the Potency read?
Its Potency is inconclusive: 7.08 µM [inhibitor, partial curve].

With O=C(COc1ccccc1Cl)Nc1ccccc1C(=O)N1CCCCC1 as the compound, how does the Potency read?
The Potency was inconclusive: 20 µM [inhibitor, single point].

Which Potency does the source give for COc1cccc(Nc2nc3cc(C)ccc3nc2NS(=O)(=O)c2ccc(Cl)cc2)c1 here?
Its Potency is active: 7.94 µM.

With CCOc1ccc(/C=N/NC(=O)c2c(C)n(C)c3ccc(OC)cc23)cc1 as the compound, how does the Potency read?
Its Potency is inconclusive: 35.5 µM [inhibitor, single point].

With COc1ccc(C2/C=C\CN(C(=O)c3ccc(C)cc3)CC(=O)N2Cc2ccc(F)cc2)cc1 (centres undefined) as the compound, how does the Potency read?
Its Potency is inconclusive: 22.4 µM [inhibitor, single point].

For COC(=O)c1ccccc1NC(=O)Cn1cnc2sc(C)c(S(=O)(=O)N3CCC(C)CC3)c2c1=O, which Potency is on record?
Its Potency is “inactive”.

For Cc1ccc(NC(=O)CN2CCc3cc4c(cc3C2C)OCCCO4)cc1 (centres undefined), which Potency is on record?
The Potency was “inactive”.

With O=C(C1=C[C@@H](c2ccc(C(F)(F)F)cc2)C[C@@H](OCc2ccc(CO)cc2)O1)N1CCN(Cc2ccc3c(c2)OCO3)CC1 as the compound, how does the Potency read?
Its Potency is inconclusive: 35.5 µM [inhibitor, single point].

With O=C(c1ccccc1Br)N1CCCC(c2nc(-c3cccs3)no2)C1 (centres undefined) as the compound, how does the Potency read?
The Potency was inconclusive: 5.01 µM [inhibitor, partial curve].

Which Potency does the source give for CC(C)(C)c1ccc(OCCOc2ccc(C(C)(C)C)cc2NC=O)c(NC=O)c1 here?
Its Potency is inconclusive: 20 µM [inhibitor, single point].

Which Potency does the source give for O=C(NCC(c1ccco1)N1CCCCC1)c1ccc(S(=O)(=O)Nc2ccccc2Cl)cc1 (centres undefined) here?
The Potency was inconclusive: 11.2 µM [inhibitor, partial curve].

With CC(C)(O)C#Cc1cccc(-c2nc(C(=O)NCCCN3CCOCC3)cc3c2[C@H](CCO)N(S(=O)C(C)(C)C)C3)c1 (some centres undefined) as the compound, how does the Potency read?
The Potency was “inactive”.

For COc1ccc(N=C2S/C(=C\c3ccc(Cl)c([N+](=O)[O-])c3)C(=O)N2CCN(C)C)cc1, which Potency is on record?
The Potency was inconclusive: 35.5 µM [inhibitor, single point].

For COc1ccccc1NC(=O)CN1CCN(CC(=O)Nc2ccc(S(N)(=O)=O)cc2)CC1, which Potency is on record?
Its Potency is “inactive”.

For Cc1nnc2ccc(-c3cccc(NC(=O)c4ccc(Cl)nc4)c3)nn12, which Potency is on record?
Its Potency is “inactive”.

Which Potency does the source give for CSc1nc(NCCOCCO)c2sc3nc(-c4ccco4)c4c(c3c2n1)CCC4 here?
Its Potency is inconclusive: 10 µM [inhibitor, partial curve, poor fit].

Which Potency does the source give for CC(C)c1ccc(S(=O)(=O)/N=C2\C=C(NS(=O)(=O)c3ccccc3)C(=O)c3ccccc32)cc1 here?
Its Potency is inconclusive: 11.2 µM [inhibitor, partial curve, poor fit].

Which Potency does the source give for CCCN(CC(=O)Nc1ccccc1C)CC(=O)Nc1ccc(Br)cc1F here?
The Potency was inconclusive: 35.5 µM [inhibitor, single point].

With OC(CNc1nc(C(F)(F)F)nc2ccccc12)c1ccccc1 (centres undefined) as the compound, how does the Potency read?
The Potency was inconclusive: 35.5 µM [inhibitor, single point].

Which Potency does the source give for CCc1ccc(CNC(=O)CCCn2ccc3cc(S(=O)(=O)N4CCCC4)ccc32)cc1 here?
The Potency was inconclusive: 7.08 µM [inhibitor, partial curve, poor fit].

With Cc1ccc(C2(C)NC(=O)N(CC(=O)Nc3cc(C)on3)C2=O)cc1 (centres undefined) as the compound, how does the Potency read?
Its Potency is “inactive”.

Which Potency does the source give for O=C1NC(=Nc2ccccc2Cl)S/C1=C\c1cccc([N+](=O)[O-])c1 here?
Its Potency is inconclusive: 22.4 µM [inhibitor, single point].

Which Potency does the source give for O=C(C#Cc1ccccc1)c1cccc([N+](=O)[O-])c1 here?
Its Potency is inconclusive: 15.8 µM [inhibitor, single point].

Which Potency does the source give for O=C(COC(=O)c1ccc2ncsc2c1)Nc1cccc(Cl)c1 here?
The Potency was inconclusive: 5.62 µM [inhibitor, full curve, poor fit].

For Cc1ccc(C(=O)NC(C(=O)OCc2cn3cc(Cl)ccc3n2)C(C)C)cc1 (centres undefined), which Potency is on record?
The Potency was inconclusive: 20 µM [inhibitor, single point].

Which Potency does the source give for CCOC(=O)c1c(NC(=O)c2ccc(C)cc2)sc2c1CC(C)(C)OC2 here?
Its Potency is inconclusive: 15.8 µM [inhibitor, single point].

Which Potency does the source give for Cn1ccc2c(N3c4ccccc4CCc4ccccc43)cc3c(c21)C1CCC3O1 (centres undefined) here?
Its Potency is inconclusive: 6.31 µM [inhibitor, full curve, poor fit].

For CCOc1ccc(NC(=O)c2ccc(NS(=O)(=O)c3cccs3)cc2)cc1, which Potency is on record?
The Potency was “inactive”.

For CC1(C)CC(=O)CC(=Nc2ccc(C(=O)O)cc2)C1, which Potency is on record?
Its Potency is inconclusive: 3.16 µM [inhibitor, partial curve, poor fit].

Which Potency does the source give for Cc1nc(-c2ccc(C#N)cc2)cs1 here?
Its Potency is “inactive”.

Which Potency does the source give for COCCn1c(N)c(C#N)c2nc3ccccc3nc21 here?
Its Potency is inconclusive: 1.26 µM [inhibitor, partial curve].

Which Potency does the source give for Cc1cccc(OCCSc2nnc(-c3cccs3)o2)c1 here?
Its Potency is inconclusive: 17.8 µM [inhibitor, single point].

Which Potency does the source give for CC[C@H](C)[C@@H]1OC(=O)[C@@H](C)[C@@H](CC)NC(=O)[C@H](C)N(C)C(=O)C(C)(C)C(=O)C(C)NC(=O)[C@H](Cc2ccccc2)N(C)C(=O)[C@H](C(C)C)N(C)C(=O)CNC(=O)[C@H](CC(C)C)N(C)C(=O)CNC1=O (some centres undefined) (cyclo(G[NMeL]G[NMeV][NMeF][X1][NMeA][X3])) here?
Its Potency is active: 3.55 µM.

With CCC(C)NC(=O)CCn1c(-c2ccc(F)cc2)cc(C(C)=O)c1C (centres undefined) as the compound, how does the Potency read?
The Potency was inconclusive: 0.112 µM [inhibitor, full curve, poor fit].

With N#Cc1c(C(F)(F)F)cc(=O)n2c1[nH]c1ccccc12 as the compound, how does the Potency read?
Its Potency is inconclusive: 11.2 µM [inhibitor, partial curve, poor fit].

For CC(=O)N1CCN(CCS(=O)(=O)c2ccc(Br)cc2)CC1, which Potency is on record?
Its Potency is “inactive”.

Which Potency does the source give for CC1(C)NC(=O)N(CC(=O)NNC(=O)c2ccccc2F)C1=O here?
Its Potency is inconclusive: 5.62 µM [inhibitor, single point].

For Clc1ccccc1OCCSc1nnc(-c2cccs2)o1, which Potency is on record?
Its Potency is inconclusive: 8.91 µM [inhibitor, partial curve, poor fit].

Which Potency does the source give for O=C(CSc1nc(=O)n(Cc2ccco2)c2c1CCC2)NCc1ccccc1 here?
The Potency was “inactive”.

For COc1cccc(C(=O)N2C(C(C)C)COc3cc(Br)ccc3S2(=O)=O)c1 (centres undefined), which Potency is on record?
Its Potency is inconclusive: 35.5 µM [inhibitor, single point].

For N=c1n(CCCOc2ccc(Br)cc2)c2ccccc2n1CC(N)=O, which Potency is on record?
The Potency was inconclusive: 17.8 µM [inhibitor, single point].

Which Potency does the source give for COc1ccc(CN2CCN(C3CCC3)CC2CCO)cc1C (centres undefined) here?
Its Potency is “inactive”.

Which Potency does the source give for O=C1C=C(c2ccc(Cl)c(C(F)(F)F)c2)C[C@@H](c2ccc3c(c2)OCO3)C1 here?
Its Potency is inconclusive: 17.8 µM [inhibitor, single point].

With Cc1ccc(S(=O)(=O)NCCC(=O)OCC(=O)Nc2cccc(S(=O)(=O)NC3=NCCCCC3)c2)cc1 as the compound, how does the Potency read?
The Potency was inconclusive: 0.631 µM [inhibitor, full curve].

With COC(=O)C1=CN(Cc2ccccc2)C=C(C(=O)OC)C1c1ccc(OC)c(OC)c1 as the compound, how does the Potency read?
The Potency was “inactive”.

For COc1cccc(NC(=O)C2CCN(c3ccc(Sc4ccc(C)cc4)nn3)CC2)c1, which Potency is on record?
The Potency was inconclusive: 17.8 µM [inhibitor, single point].
